Source: paper PMC7819943, “Rice protein-binding microarrays: a tool to detect cis-acting elements near promoter regions in rice”
The other results are listed elsewhere or left out.

Each sequence was assayed against T1, OsWOX13 (Oryza sativa, UniProt Q5QMM3 1-267) (assay: protein-binding microarray (RPBM); PBS, 2% BSA, 51.3 ng/ul salmon testes DNA, 50 uM zinc acetate, 200 nM TF, 25 C, 1 h; high values mean tight binding). Conditions: protein: recombinant; tags: N-terminal polyhistidine and DsRed monomer fusion (pET32a); label: CyDye5-dUTP incorporated in the synthesized complementary strand; 3' TTTTT single-stranded linker to array surface; dsDNA, one strand shown.
T1 sequence: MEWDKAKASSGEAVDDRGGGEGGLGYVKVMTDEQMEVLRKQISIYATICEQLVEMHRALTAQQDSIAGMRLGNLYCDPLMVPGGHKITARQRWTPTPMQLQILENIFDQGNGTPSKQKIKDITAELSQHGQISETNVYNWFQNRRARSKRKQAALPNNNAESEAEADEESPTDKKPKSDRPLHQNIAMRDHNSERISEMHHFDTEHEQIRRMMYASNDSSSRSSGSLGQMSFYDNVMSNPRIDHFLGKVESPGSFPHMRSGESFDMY
Procedure, shortened: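 An Axon 4000B scanner gave the binding signal as per-feature fluorescence intensity in arbitrary units. This followed washing of a custom Agilent array that had been incubated for 1 h at 25 °C with 200 nM protein in PBS, 2% BSA, salmon testes DNA and 50 µM zinc acetate. The proteins were transcription factors fused at the N-terminus to polyhistidine and DsRed, expressed in E. coli BL21-CodonPlus and purified on Ni–NTA.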

Sequence | binding signal
ATGTTAAATTTATTGAGATTCAGTGTTATAAATTTTGCTACGGAGTCACCTAGTGCAG | 13400 fluorescence intensity (a.u.)
ATGACAAATTATCAGTTCAGTTGTGGCTATCACCATTGTCCGGAGTCACCTAGTGCAG | 30200 fluorescence intensity (a.u.)
TTTTATGATGCCTATCAGCAAATTATACAAATTTTAAGTGCGGAGTCACCTAGTGCAG | 3180 fluorescence intensity (a.u.)
AACAAATTTGAGTTTCGGCTTATTAAGTTAATTAAGCACACGGAGTCACCTAGTGCAG | 13200 fluorescence intensity (a.u.)
TTTTACTCATAATTAAATTTACAAGTAAAACTTTTACCCTCGGAGTCACCTAGTGCAG | 10100 fluorescence intensity (a.u.)
GCGGCTAATTGTATTGCCGCTCTCTTGTTGTATGGATTGACGGAGTCACCTAGTGCAG | 4610 fluorescence intensity (a.u.)
GTAATTAAATTAGTTGCGTCCCCACCGATAAATTTTGCCACGGAGTCACCTAGTGCAG | 13500 fluorescence intensity (a.u.)
TGCTGATATTATCAAATTTGGTCGTTAACAATCTCACAACCGGAGTCACCTAGTGCAG | 8520 fluorescence intensity (a.u.)
AGTAATTAATTAATTCGGTGTGGGCAAAAGAAGAGATAGGCGGAGTCACCTAGTGCAG | 36700 fluorescence intensity (a.u.)
TGTTAATAAATCTAAATATATATATGTGTGTCTAGTCCATCGGAGTCACCTAGTGCAG | 3410 fluorescence intensity (a.u.)
TCAAATTGGTGTGACATCGTTGTTTTGTCACATCAGTTGTCGGAGTCACCTAGTGCAG | 18200 fluorescence intensity (a.u.)
TCAAAGCTTGATGATGATTATGCATGGAAATCGCCCGAGGCGGAGTCACCTAGTGCAG | 5440 fluorescence intensity (a.u.)
AACAAATTGGAATCTGAACCTCTAGTGAACAATGCTTGAACGGAGTCACCTAGTGCAG | 15000 fluorescence intensity (a.u.)
GATAATTACCCACCCGAGGCTCCTGCGTCGTCCTCCTCTTCGGAGTCACCTAGTGCAG | 8300 fluorescence intensity (a.u.)
CCTAAATGTAAATTTTCCAGCATAACTTGTTAGCTCTATACGGAGTCACCTAGTGCAG | 14200 fluorescence intensity (a.u.)
AAATGCGCCAATAATTTAACAGCCATTCAGCAATTACACCCGGAGTCACCTAGTGCAG | 4130 fluorescence intensity (a.u.)
GGTGAGGATTGAAGATCCCTTGATTTAATCATGTTTGCATCGGAGTCACCTAGTGCAG | 13300 fluorescence intensity (a.u.)
TCTAATCACATGCATGATGCTAATTAATGCTAGCTAGCTTCGGAGTCACCTAGTGCAG | 7980 fluorescence intensity (a.u.)
TCACGATTAATTATATCATCATTTTGTATCCTTTGATTTCCGGAGTCACCTAGTGCAG | 25200 fluorescence intensity (a.u.)
AATAAATAAACAAACAGCACTCCCTGCACTGTTGCACCCTCGGAGTCACCTAGTGCAG | 7190 fluorescence intensity (a.u.)
CAAATTTATTATTAAGATTATCCGAAAACAAATCCTAGCCCGGAGTCACCTAGTGCAG | 6740 fluorescence intensity (a.u.)

Sequence | binding signal
TTGTGTTTAGATTGCTAAACACTCACACATATATACAAGTCGGAGTCACCTAGTGCAG | 3230 fluorescence intensity (a.u.)
AAAACTAATTTCATAAATGAGAGCTAATCCGCGAGACGAACGGAGTCACCTAGTGCAG | 12000 fluorescence intensity (a.u.)
TAAATATTGACATGAAATCATATTAACGTTGGTCAAATATCGGAGTCACCTAGTGCAG | 10400 fluorescence intensity (a.u.)
ACTCAAATTTAAACTTATCATGTGACAGGGCAAAGGAGGACGGAGTCACCTAGTGCAG | 12300 fluorescence intensity (a.u.)
CTACATACTATTTAAATTTAAATTATCATAAACCACATTACGGAGTCACCTAGTGCAG | 10500 fluorescence intensity (a.u.)
ATGATAACTGATTGCAATAAGGTTAGGATGTTGTCACACCCGGAGTCACCTAGTGCAG | 52900 fluorescence intensity (a.u.)
ATTGATTACCAGTTTGTTGTTTAGATTTGGTAATAGGGAACGGAGTCACCTAGTGCAG | 51200 fluorescence intensity (a.u.)
CCTTAATTAACTAACATTCAGTCAGTTAGTCACCGGATAGCGGAGTCACCTAGTGCAG | 52600 fluorescence intensity (a.u.)
TTTAAAATTTAATATCACTAATTATAGTTACAATCTCATCCGGAGTCACCTAGTGCAG | 18800 fluorescence intensity (a.u.)
AGATAAATGGAGTAATGAGGCTGACATGTGGCCTACATGGCGGAGTCACCTAGTGCAG | 5550 fluorescence intensity (a.u.)
TTTAGATTTGACATGAGTGCTAGTATTTATGGCTAATTATCGGAGTCACCTAGTGCAG | 17200 fluorescence intensity (a.u.)
TATTGATTATTCTTCTATAAACAAACACCAGGTCTTCGGGCGGAGTCACCTAGTGCAG | 23900 fluorescence intensity (a.u.)
TTTCAATCCGTTAAAATTTAATGTTTCAGACACGATAGCACGGAGTCACCTAGTGCAG | 7710 fluorescence intensity (a.u.)
TCAATCAATCTGACCAATTCAGTCAAGTCCCAATTCCCAACGGAGTCACCTAGTGCAG | 9830 fluorescence intensity (a.u.)
AATAAATGACAAGGAAAAGAGATTAAAGAACAAACAGTCCCGGAGTCACCTAGTGCAG | 3740 fluorescence intensity (a.u.)
TTGATAAATTTGGTGTTAAATTTATAGTTTTATGAGAAAACGGAGTCACCTAGTGCAG | 14400 fluorescence intensity (a.u.)
TTTAAAATTCTACAATTTATAAATTGCTCACCGCAGCAAACGGAGTCACCTAGTGCAG | 3700 fluorescence intensity (a.u.)
TGCTGATGATGAGTTCTTCTGAAGCAACATGCCGACATGCCGGAGTCACCTAGTGCAG | 5230 fluorescence intensity (a.u.)
ACGTCCCCAATCACACCGCCAAACCACCAAACTCGAATTTCGGAGTCACCTAGTGCAG | 7940 fluorescence intensity (a.u.)
AATAATTAATTAATCATAGCTTGCAACTGCATATGTAGGGCGGAGTCACCTAGTGCAG | 56700 fluorescence intensity (a.u.)
AATAATTACTTCCTCCCTTTCCCAAAATCCACCCACCCTTCGGAGTCACCTAGTGCAG | 18100 fluorescence intensity (a.u.)
